Laboratory results published in the supplement of paper PMC10126150.
Sequences with one replicate were seen in a single cluster, so their values are uncertain.

System: ATP
Assay: switch fluorescence ratio, 500 uM ATP over buffer (Cy3 cluster intensity, sum of 5 cycles each) (fold (ratio)); higher = stronger signal-on switching upon ATP binding; sequences stand for … in TCGTCGGCAGCGTCAGATGTGTATAAGAGACAGTTTTTTTTTTTTTTTTTTTTTTTTT…TC
Settings: aptamer strand: ATP DNA aptamer (quencher-CACCTGGGGGAGTATTGCGGAGGAAGG + anchor), 100 nM annealed; ATP concentration: 500 uM; one replicate
Procedure, shortened: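 Exposure to 500 uM ATP lasted 15 min at 22 °C before imaging, and a selection-buffer image was taken beforehand, for Cy3-labelled switching-strand clusters on a modified Illumina MiSeq flow-cell annealed to 100 nM quencher-labelled ATP aptamer. Five buffer/ATP cycles were run with NaOH stripping and re-annealing between them. The fluorescence ratio per cluster is summed target-cycle over summed buffer-cycle Cy3 intensity, averaged per switch-domain sequence. Clusters outside 100-1000 RFU were excluded.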

Sequence	switch fluorescence ratio
CTATTTGCTG	0.953
CTATTTGGGT	0.989
CTATTTTG	1.04
CTATTTTGT	0.974
CTCAAAAGCG	1.01
CTCAAAGTAG	1.18
CTCAAGCGAT	5.93
CTCAAGGTTG	0.998
CTCAATGCCG	1.09
CTCACCAAGA	1.13
CTCACCGGTG	1.39
CTCACGCTCA	1.65
CTCACTCCAG	1.11
CTCAGAAAA	1.01
CTCAGAAGC	1.09
CTCAGATCCC	1.04
CTCAGGAGAT	0.983
CTCAGTAGG	1.06
CTCAGTAGTG	1.04
CTCAGTCATT	1.05
CTCAGTCCTT	0.979
CTCAGTGGGT	0.993
CTCATAGGCG	0.947
CTCATAGGGT	1
CTCATGGGAT	1.04
CTCATGTTCG	0.953

Sequence	switch fluorescence ratio
CTCCAACTGT	0.924
CTCCAATGAT	1.29
CTCCATACGG	1.15
CTCCCAGCAG	2.77
CTCCCCGGCG	1.05
CTCCGGGT	1.42
CTCCTCTGTG	1.67
CTCCTTACTA	1.13
CTCCTTTCGG	1.07
CTCGAAAAGC	1.09
CTCGATACCC	1.22
CTCGATGTAT	1.07
CTCGATTGTG	0.999
CTCGCAGACA	1.35
CTCGCAGCGT	1.16
CTCGCCCGCT	1.19
CTCGCGCGCA	1.03
CTCGCGTCGT	0.987
CTCGCGTTGG	0.994
CTCGCTCCTA	1
CTCGGGGTCA	0.978
CTCGGGTAT	1.01
CTCGGTGAA	1.48
CTCGTACGAC	1.11
CTCGTATTTT	1.03
CTCGTCGACG	0.956

Sequence	switch fluorescence ratio
CTCGTCTACG	0.988
CTCGTCTGAT	1.04
CTCGTGAGGT	1
CTCGTTACA	0.955
CTCGTTCGCA	1.64
CTCGTTGTCT	0.974
CTCTAACCTA	1.03
CTCTAAGTCA	0.993
CTCTACAAGG	1.08
CTCTACACCA	1.09
CTCTACAGCT	1.05
CTCTAGACTT	1.01
CTCTAGCGCG	0.949
CTCTATCGAG	0.982
CTCTCCAGGA	1.16
CTCTCTTCAT	1.03
CTCTGAAGGG	1.04
CTCTGACACG	1.06
CTCTGAGACG	1
CTCTGATCGA	0.974
CTCTGCAGCT	2.68
CTCTGGCCAA	2.37
CTCTGGTAGA	1.02
CTCTGTTTTT	0.946
CTCTTCAAGA	1.02
CTCTTCTCGT	0.959

Sequence	switch fluorescence ratio
CTCTTTACTA	0.971
CTCTTTCTA	1.03
CTGAAAGGTG	1.1
CTGAACCCCA	1.05
CTGAACGTCG	1.09
CTGAAGCTGG	1.93
CTGAATTTGT	0.934
CTGACAGAAA	2.28
CTGACAGGGA	0.988
CTGACCTCGC	1.58
CTGACTGCC	1.25
CTGACTTTCT	1.04
CTGAGAAAAT	0.969
CTGAGACGCC	1.02
CTGAGGATGA	1.01
CTGAGGCGAT	1.01
CTGAGGGTGC	1.01
CTGATAAAG	0.937
CTGATACTAT	0.991
CTGATAGGTC	0.98
CTGATCAAA	1.01
CTGATGCCTA	0.925
CTGATGCTCG	1.02
CTGATGTTCG	0.995
CTGATTACTT	0.996
CTGATTCGGA	1.03

Sequence	switch fluorescence ratio
CTGATTCGTT	1.01
CTGATTTGCC	1.03
CTGCACTGTT	0.975
CTGCATAGTT	1.01
CTGCCCAGTT	1.08
CTGCCCCGGG	1.73
CTGCCCGGTT	1.03
CTGCCGAAGC	3.01
CTGCCGACGG	1.18
CTGCGACTGA	1.01
CTGCGAGAAT	1.05
CTGCGCGGGA	1.08
CTGCGGGAGT	1
CTGCGTCAGA	0.989
CTGCGTCTTA	0.993
CTGCGTTCGG	0.966
CTGCTACTTT	1.05
CTGCTATGGC	1.07
CTGCTGATTC	1.15
CTGCTTTCTG	1.04
CTGGAAAGAT	0.987
CTGGAAGCGC	1.02
CTGGACCATG	0.97
CTGGACCT	1.33
CTGGAGGCTC	1.06
CTGGAGTGTT	1.06

Sequence	switch fluorescence ratio
CTGGAGTTAC	2.8
CTGGATCGTT	0.944
CTGGCAGAGG	0.962
CTGGCCGCAT	1.6
CTGGCCTACG	1.05
CTGGCGAGCC	1.03
CTGGGAGTGA	1.05
CTGGGCGAG	0.952
CTGGGCTAAC	1.39
CTGGGGAGT	1.04
CTGGGGCAAC	1.2
CTGGGTCTAA	0.973
CTGGTCCGTT	1.05
CTGGTGGTCA	0.99
CTGGTGTTCC	1.07
CTGGTTACGT	0.993
CTGTAACTGG	0.999
CTGTAATGCG	1.07
CTGTCACACG	1.03
CTGTCCGAA	1.03
CTGTCGTGCT	0.92
CTGTCTGGG	0.997
CTGTCTGTTA	1.06
CTGTGAATTG	0.999
CTGTGAATTT	0.955
CTGTGATAAA	0.984

Sequence	switch fluorescence ratio
CTGTGGTTGC	1.04
CTGTGTGAGC	1.01
CTGTTAATC	1.01
CTGTTACAT	1.06
CTGTTGAGAG	0.974
CTGTTGGCTA	1.02
CTGTTTGAGG	1.02
CTTAACTGAA	0.987
CTTAACTGGT	1.05
CTTAAGGTAC	1.11
CTTAAGTAAT	1.06
CTTAATAAG	1.03
CTTAATAGGA	1.01
CTTAATCAGC	1.06
CTTAATCTGG	0.995
CTTACAGGCT	0.975
CTTACGGGCG	0.973
CTTACTAAAC	1.09
CTTAGCGCAA	2.25
CTTAGCTTGT	0.983
CTTAGGCTTG	1
CTTAGGGAGG	0.995
CTTAGGGCAT	1
CTTAGGTATG	0.993
CTTAGTGGG	0.97
CTTAGTTTCC	1.03

Sequence	switch fluorescence ratio
CTTATACAT	1.02
CTTATTCCAA	1.01
CTTCAAGGGA	0.989
CTTCACTCCG	4.38
CTTCAGCCAC	2.15
CTTCATAAG	0.953
CTTCATACTC	1.36
CTTCCCCTCG	1.34
CTTCCCTAGC	3.39
CTTCCGAGTA	2.8
CTTCGACGGC	1.41
CTTCGTATAG	1.24
CTTCGTCATG	1.14
CTTCGTGTTA	1.04
CTTCGTTATT	1.07
CTTCTAGAG	1.01
CTTCTATGCG	0.959
CTTCTCTTAG	0.985
CTTCTGCGGC	1.08
